# Measurements taken from the supplement of paper PMC9446081.
# Hit rate of the full screen: of about 39,000 compounds, about 220 (0.56%) showed activity. The list shows a part of the results.
# System: Escherichia coli K-12 BW25113
# Assay: relative growth (OD600 normalised to plate interquartile mean) (fraction); higher = less growth inhibition, active = 0.2 or less
# Conditions: 50 µM; LB; incubation time: overnight (16-24 h)
# 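Further: static incubation at 37 °C against the wild-type strain, values averaged over two biological replicates.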
row,Compound,relative growth
1,CNC[C@@H](O)c1cccc(O)c1,inactive: 1.02
2,COc1ccc(NC(=O)Nc2ccc3c(c2)CC(=O)N([C@@H](C)CO)C[C@@H](C)[C@@H](CN(C)Cc2ccc(Oc4ccccc4)cc2)O3)cc1,inactive: 1
3,O=C(O)c1ccc(O)cc1O,inactive: 0.67
4,O=C1NC(=O)[C@H](Cc2ccccc2)N1,inactive: 0.992
5,CCc1ccc(Nc2c3c(nc4ccccc24)CCCC3)cc1,inactive: 0.97
6,O=C(CCCCCNC(=O)OC[C@]12N=C3SCc4ccccc4CN3[C@H](c3ccccc3O1)[C@H]2COC(=O)c1ccccc1)NO,inactive: 0.998
7,COc1ccc(NC(=O)Nc2ccc3c(c2)C(=O)N([C@@H](C)CO)C[C@H](C)[C@@H](CN(C)S(=O)(=O)c2ccc(F)cc2)OCCCC[C@H](C)O3)cc1,inactive: 0.932
8,Cc1ccc(S(=O)(=O)Nc2cccc3c2O[C@H](CN(C)C(=O)Nc2ccc(C(F)(F)F)cc2)[C@@H](C)CN([C@@H](C)CO)C3=O)cc1,inactive: 0.975
9,Cc1noc(C)c1NC(=O)N(C)C[C@@H]1Oc2ccc(NC(=O)Nc3ccc(C(F)(F)F)cc3)cc2CC(=O)N([C@H](C)CO)C[C@H]1C,inactive: 1
10,COc1ccc(S(=O)(=O)Nc2ccc3c(c2)CC(=O)N([C@H](C)CO)C[C@@H](C)[C@H](CN(C)Cc2ccc(Oc4ccccc4)cc2)O3)cc1,inactive: 0.994
11,C[C@@H]1CN([C@H](C)CO)C(=O)c2cc(NC(=O)CCC(F)(F)F)ccc2O[C@H]1CN(C)Cc1ccc(C(=O)Nc2ccccc2N)cc1,inactive: 0.983
12,COc1ccc(S(=O)(=O)Nc2ccc3c(c2)C(=O)N([C@H](C)CO)C[C@@H](C)[C@H](CN(C)Cc2ccc(Cl)c(Cl)c2)O3)cc1,inactive: 0.963
13,O=C(O)CNC(=O)CNC(=O)Cn1nc(-c2ccccc2)ccc1=O,inactive: 0.982
14,C[C@@H]1CN([C@H](C)CO)S(=O)(=O)c2ccc(C#CC3CCCC3)cc2O[C@H]1CN(C)Cc1cncnc1,inactive: 1.03
15,CCCNC(=O)N1C[C@H](O)COC[C@H]2O[C@@H](CC(=O)NCc3ccncn3)CC[C@@H]21,inactive: 1.01
16,CO[C@@H]1CN(C)C(=O)c2cc(NC(=O)CC(F)(F)F)ccc2OC[C@H](C)N(C(=O)C2CCOCC2)C[C@H]1C,inactive: 1
17,COC(=O)[C@H]1[C@H](C(=O)O)[C@@]2(C(=O)Nc3ccc(C#Cc4ccc(OC)cc4)cc32)[C@@H](c2ccccc2)N1C,inactive: 0.976
18,COc1ccc(S(=O)(=O)N(C)C[C@H]2Oc3ncc(-c4ccncc4)cc3C(=O)N([C@@H](C)CO)C[C@@H]2C)cc1,inactive: 1.01
